Results from publication PMC4336329 (PLoS ONE, 2015).
In all, about 310,000 compounds went through this assay and about 14,000 (4.5%) showed an effect of 50% or more. Effects have a minus sign here. This is one part of the list.

The compounds below were run against human ether-à-go-go-related gene (hERG) potassium channel (human, UniProt Q12809) (assay: primary screen, population patch clamp on CHO cells stably expressing hERG).
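Note: peak tail current of the secondary pulse compared with the same well before compound.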

Sequence of human ether-à-go-go-related gene (hERG) potassium channel (Q12809 whole entry, looked up): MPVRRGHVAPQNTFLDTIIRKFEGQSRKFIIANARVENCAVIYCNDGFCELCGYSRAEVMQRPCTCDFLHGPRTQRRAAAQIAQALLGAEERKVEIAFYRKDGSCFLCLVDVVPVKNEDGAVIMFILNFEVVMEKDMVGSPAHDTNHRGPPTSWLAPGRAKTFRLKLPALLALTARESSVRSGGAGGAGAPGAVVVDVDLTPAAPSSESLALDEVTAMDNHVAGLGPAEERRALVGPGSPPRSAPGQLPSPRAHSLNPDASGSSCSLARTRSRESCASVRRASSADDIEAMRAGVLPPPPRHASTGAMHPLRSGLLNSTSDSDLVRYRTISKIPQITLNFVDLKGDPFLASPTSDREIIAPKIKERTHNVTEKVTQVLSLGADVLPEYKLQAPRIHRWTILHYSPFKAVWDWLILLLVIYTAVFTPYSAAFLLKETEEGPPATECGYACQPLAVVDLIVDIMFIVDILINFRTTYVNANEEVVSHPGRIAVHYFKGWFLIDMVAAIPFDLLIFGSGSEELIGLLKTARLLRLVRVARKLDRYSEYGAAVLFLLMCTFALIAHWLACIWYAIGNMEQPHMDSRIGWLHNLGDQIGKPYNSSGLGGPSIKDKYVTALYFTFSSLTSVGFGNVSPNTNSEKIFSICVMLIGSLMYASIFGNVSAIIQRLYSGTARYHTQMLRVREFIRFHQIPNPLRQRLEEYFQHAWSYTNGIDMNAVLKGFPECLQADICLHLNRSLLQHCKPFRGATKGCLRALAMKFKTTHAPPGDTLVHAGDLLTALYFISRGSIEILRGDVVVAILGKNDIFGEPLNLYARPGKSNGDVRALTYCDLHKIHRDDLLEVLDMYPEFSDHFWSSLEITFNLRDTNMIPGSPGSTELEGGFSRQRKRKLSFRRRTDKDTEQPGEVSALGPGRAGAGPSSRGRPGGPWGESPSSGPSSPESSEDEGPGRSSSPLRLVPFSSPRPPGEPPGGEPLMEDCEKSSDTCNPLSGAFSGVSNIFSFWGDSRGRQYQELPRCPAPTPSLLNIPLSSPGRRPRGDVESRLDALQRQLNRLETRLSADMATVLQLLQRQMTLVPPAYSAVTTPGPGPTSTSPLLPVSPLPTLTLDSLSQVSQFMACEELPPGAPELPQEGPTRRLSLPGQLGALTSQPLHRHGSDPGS

Row | Structure (SMILES) | hERG current change (%, negative = inhibition) at 10uM
1 | Nc1ccc2oc(-c3cc(Br)ccc3Cl)nc2c1 | 5.7%
2 | CC(C)CC(=O)Nc1nnc(SCC(=O)NCc2ccco2)s1 | -10.3%
3 | Cc1cc(NCCCn2ccnc2)n2nc(-c3ccc(Cl)cc3)cc2n1 | -74.6%
4 | CCC(=O)N1c2ccccc2NC2=C(C(=O)CC(c3ccco3)C2)C1c1ccco1 (centres unmarked) | -11.3%
5 | O=c1[nH]c(CN2CCCC2)nc2sc3c(c12)CCC3 | 20.5%
6 | CCn1cnc2cc(NCc3ccccc3Cl)ccc21 | -52.1%
7 | CCCCOC(=O)C(NC(=O)c1ccccc1)=C(C)C | 7.83%
8 | CCOc1ccc(OCC)c(NC(=O)CCCN2C(=O)c3cccnc3C2=O)c1 | 6.57%
9 | COCCN1C=C(C(=O)OC)C(c2ccc(Cl)cc2)C(C(=O)OC)=C1 | -5.52%
10 | COc1cc(OC)cc(C(=O)N[C@H](C(=O)Nc2ccc(S(=O)(=O)N(C)C)cc2)C(C)C)c1 | 2.97%
11 | Cc1ccc(C)c(OCC(=O)Nc2ccc(S(=O)(=O)Nc3ncccn3)cc2)c1 | 5.02%
12 | Cc1cccc(N(CC(N)=O)S(C)(=O)=O)c1C | 21.5%
13 | CCCNC(=O)CCc1nnc2ccc(N3CCC(C)CC3)nn12 | 2.79%
14 | Br.COc1ccc(-c2csc(Cc3nnc4n3CCCCC4)n2)cc1OC | -23.2%
15 | COCC(=O)NNS(=O)(=O)c1ccccc1[N+](=O)[O-] | 10.5%
16 | Cc1cc(C)c(S(=O)(=O)CCC(C)C)c(=O)[nH]1 | 7.63%
17 | CCOC(=O)Cc1csc(NC(=O)c2c(-c3c(F)cccc3Cl)noc2C)n1 | -32.7%
18 | CCOc1ccc(C(=O)Nc2ccc(Cc3ccncc3)cc2)cc1Br | 8.02%
19 | CCOC(=O)C1(CC2CCCCO2)CCN(Cc2cc3ccccc3[nH]2)CC1 (centres unmarked) | -46.1%
20 | CC(C)CC1=NN(C(=O)c2ccco2)C(O)(C(F)(F)F)C1 (centres unmarked) | 26.5%
21 | CCCCCN(C(=O)COC(=O)c1ccc(Br)o1)c1c(N)n(CCCC)c(=O)[nH]c1=O | -6.93%
22 | COc1cccc(C2NC(=O)CCC2[N+](=O)[O-])c1 (centres unmarked) | 19.3%

Row | Structure (SMILES) | hERG current change (%, negative = inhibition) at 10uM
23 | Cc1ccc(N2C(=O)Nc3ccc(Br)cc3C2(O)C(=O)NCCN(C)C)cc1C (centres unmarked) | 21.4%
24 | N#Cc1c(SCC(N)=O)nc(-c2ccccc2)c2c1CCCC2 | -0.645%
25 | O=C(COC(=O)c1cc(Cl)ccc1[N+](=O)[O-])NCc1ccc(Cl)cc1Cl | -11.8%
26 | O=C(O)CC1S/C(=N/N=C/c2ccc(-c3ccc(Cl)cc3[N+](=O)[O-])o2)NC1=O (centres unmarked) | 5.69%
27 | Cc1ccc2nc(Cl)c(/C=N/Nc3nc(C)cc(C)n3)c(=O)n2c1 | -21.5%
28 | C=CCn1c(SCC(=O)c2c(N)n(C)c(=O)n(C)c2=O)nc2sc(CC)cc2c1=O | -7.87%
29 | COCCn1nnnc1C(c1cc2cc(OC)c(OC)cc2[nH]c1=O)N1CCN(c2ccc(O)cc2)CC1 (centres unmarked) | 19.2%
30 | CCCCC1=CC2=CC(=O)C(C)(OC(=O)CC)C(=O)C2=CN1c1cccc(C#N)c1 (centres unmarked) | -3.42%
31 | CNCC(=O)Nc1c(C)n[nH]c1C | 11.4%
32 | COc1ccc(CC(=O)Nc2c(C(=O)N3CCN(c4ccccc4)CC3)oc3ccccc23)cc1OC | -32.4%
33 | Cc1nn(C(=O)c2nn(C)cc2[N+](=O)[O-])c(C)c1Br | 2.77%
34 | O=C1CC(N2CCN(c3cccc(C(F)(F)F)c3)CC2)C(=O)N1c1ccc(F)cc1 (centres unmarked) | -6.28%
35 | CC(=O)n1cc([C@H]2C=C(C(N)=O)O[C@@H](OCc3ccc(CO)cc3)C2)c2ccccc21 | -16.8%
36 | COc1cccc(CN(C)CC(=O)Nc2ccccc2C(=O)NC2CC2)c1 | -27.9%
37 | Fc1ccccc1NC(=S)Nc1ccc(CN2CCOCC2)cc1 | 10%
38 | O=C1CCC(C(=O)N2CCc3c(Cl)cccc3C2)CN1CCCN1CCOCC1 (centres unmarked) | 1.7%
39 | Nc1c(S(=O)(=O)c2ccccc2)c2nc3ccccc3nc2n1Cc1ccco1 | -9.5%
40 | CC(C)c1cccc(C(C)C)c1NC(=O)COC(=O)C1=COCCO1 | 11.8%
41 | O=C(Nn1c(Cc2cccs2)nc2ccccc2c1=O)c1cccs1 | -21.6%
42 | Cn1c(=O)n(-c2ccc(Cl)cc2)c(=O)c2c3c(sc21)COC(C)(C)C3 | 3.68%
43 | c1ccn(-c2ccc(-c3ccn[nH]3)cc2)c1 | 19.7%
44 | COc1cc(OC)c2c(N)c(C#N)c(C(F)(F)C(F)(F)F)nc2c1 | -9.78%

Row | Structure (SMILES) | hERG current change (%, negative = inhibition) at 10uM
45 | COc1ccc(C(=O)/C(=C\c2ccco2)N2C=CC=CC2=C(C#N)C#N)cc1 | -72%
46 | CCCCn1c(N)c(N(CC(C)C)C(=O)CSCC(=O)Nc2cccc(C)c2)c(=O)[nH]c1=O | 1.01%
47 | COc1ccc(C2CC(=O)N3CN(c4ccccc4F)CSC3=C2C#N)cc1OC (centres unmarked) | 22.4%
48 | CCN(CC(=O)Nc1c(F)cccc1F)C(=O)/C=C/c1ccc(C)cc1 | -36.1%
49 | O=C(N/C(=C/c1ccco1)C(=O)N1CCOCC1)c1ccccc1Br | 8.25%
50 | O=C(CCn1c(=O)c2cccn2c2ccc(F)cc21)NCCc1ccccc1 | -19.7%
51 | CC(C)C(OC(=O)c1ccco1)C(=O)NC1CCCC1 (centres unmarked) | 10.9%
52 | COc1ccccc1N(CC(=O)NC1CCCCC1)C(=O)c1cnn(C(C)C)c1 | -0.705%
53 | S=c1[nH]c(-c2ccc(Cl)cc2)cs1 | 27.4%
54 | CC(C)Sc1nc2c(c(=O)[nH]c(=O)n2C)n1CCc1ccccc1 | -18%
55 | CCOC(=O)c1nnc(-c2cccs2)nc1Oc1ccccc1C(=O)OC | 0.0537%
56 | CCOc1ccc(CCNC(=O)CS(=O)Cc2nc(-c3ccc(OC)c(OC)c3)oc2C)cc1OCC (centres unmarked) | -4.26%
57 | CN1CCN(C(=S)Nc2ccc(S(N)(=O)=O)cc2)CC1 | 39.7%
58 | COc1ccc(OC)c(CNc2ncc(-c3cccc([N+](=O)[O-])c3)n2C)c1.O=C(O)C(=O)O | -54.8%
59 | CCCC(=O)Nc1nnc(S(=O)(=O)N(C)Cc2ccco2)s1 | 12.3%
60 | Cc1cc(C)c([N+](=O)[O-])cc1NCC(=O)N1CCN(c2ccccc2)CC1 | 25.7%
61 | CC(C)COc1ccc(-c2cc(C(=O)NN)[nH]n2)cc1 | 6.23%
62 | O=c1c2ccccc2nnn1CSc1nnc(-c2cccnc2)n1-c1ccccc1F | 11.5%
63 | CCOc1ccc(S(=O)(=O)NCCC(=O)N2CCCCCCC2)cc1 | -16.4%
64 | O=C(CSc1nc(-c2ccncc2)nn1CC(=O)N1CCCCC1)NC1CCCC1 | -11.1%
65 | Nc1nnc2c(n1)CCCC2 | -19.9%
66 | CC1=NN(C(N)=S)C(=O)C1N=Nc1c(Cl)cc([N+](=O)[O-])cc1Cl (centres unmarked) | 26.5%

Row | Structure (SMILES) | hERG current change (%, negative = inhibition) at 10uM
67 | O=[N+]([O-])c1cccc(-c2cn(-c3ccccc3)c(=S)[nH]2)c1 | 13.9%
68 | Cc1ccc(Cn2c(SCC(=O)N/N=C/c3ccccc3OCC(=O)O)nc3ccccc32)cc1 | 1.38%
69 | Nc1nnc(CSc2ccc(Cl)cc2)s1 | 14.4%
70 | Cc1cc(C)c2c(c1)C1C=CCC1C(c1ccc(S(=O)(=O)N3CCOCC3)cc1)N2 (centres unmarked) | 7.71%
71 | CC(C)(C)NC(=O)CN(C(=O)Cn1nnc(-c2ccc(Cl)cc2)n1)C1CCN(Cc2ccccc2)CC1 | -24.5%
72 | Cc1ccc(C)c(-c2nn(-c3cc(N4CCN(CCO)CC4)ccc3[N+](=O)[O-])c(=O)c3ccccc23)c1 | -17.8%
73 | Cc1c(C(=O)NNC(=O)c2csc(N3CCOCC3)n2)cccc1[N+](=O)[O-] | -1.14%
74 | Cc1cccc(C2c3[nH]c4ccccc4c3CCN2C(=O)Cc2nc(-c3ccccc3)n[nH]2)n1 (centres unmarked) | 0.332%
75 | Cc1ccccc1SCC(=O)OCC(=O)Nc1ccc(N(C)C)cc1 | 10.4%
76 | Nc1nnc(SCC(=O)NNC(=O)c2ccc([N+](=O)[O-])cc2)s1 | 5.18%
77 | COc1ccc2nc(Sc3c([N+](=O)[O-])nc(C)n3Cc3ccccc3)[nH]c2c1 | -12.7%
78 | O=C(NC12CC3CC(CC(C3)C1)C2)c1cccc([N+](=O)[O-])c1 | -11.6%
79 | Cc1ccc(NC(=O)Cn2c(=O)c3cccn3c3ccccc32)cc1 | 8.83%
80 | COc1ccc(Cc2nc3ccc(C(=O)NCCn4cccn4)cc3o2)cc1 | -13.7%
81 | COc1ccc(CNC(=O)CN(c2ccccc2)S(=O)(=O)c2ccccc2[N+](=O)[O-])cc1 | -25.4%
82 | O=C(c1cccnc1)n1nc(NCc2ccccc2)nc1NCc1ccccc1 | -21.4%
83 | NC(=O)CCCCC(=O)OCCCc1cccs1 | 1.8%
84 | CCCCP(=O)(CCCC)Cc1ccccc1 | 15.3%
85 | CC(Cc1ccccc1)NC(=O)/C=C/c1ccc(Cl)cc1 (centres unmarked) | -11.7%
86 | COCCC(=O)N1CCC(Oc2ccc(C(=O)N3C[C@@H]4CCC[C@H]3C4)cc2)CC1 | 11.8%
